# Source: PubChem BioAssay AID463173 (ICCB-Longwood Screening Facility, Harvard Medical School, 2010)
# Out of some 52,000 compounds screened, about 4,300 (8.3%) were called active. Cut-off read from the data, not from the text of the source: active = survival mostly below about 52% (no sharp cut-off); inactive = mostly above about 56%. The list shows a part of the results.
# Tested on: DeltatarO mutant
# Assay: S. aureus survival, RN4220 and DeltatarO strains – OD600, teichoic acid synthesis inhibitors, primary screen (AID 463173)
# Settings: S. aureus RN4220 wild type/DeltatarO growth, OD600, 18 h, hits give low values, screened at 18.75 µg/mL (by protocol)
row,Structure (SMILES),survival
1,Cc1ccc2c(c1)C(=O)OC(C(=O)Nc1ncc(Cc3ccccc3Cl)s1)C2 (stereo unspecified),inactive: 68%
2,COc1ccccc1CN1CCN(C(CC(C)C)c2nnnn2Cc2ccc(F)cc2)CC1 (stereo unspecified),inactive: 85%
3,Cc1ccc(-c2cc(-c3ccc4c(c3)NC(=O)CO4)nc3c2COc2ccccc2-3)cc1,inactive: 85%
4,COc1ccc2c(c1)c1c(c(=O)n(-c3ccc(F)c(Cl)c3)c(=O)n1Cc1cccc(C)c1)n2C,inactive: 80%
5,Cc1ccc(C(=O)Nc2c(C(=O)NC(C)(C)C)oc3ccccc23)cc1,active: 32%
6,CCOc1ccc2c(c1)c(=O)c(C(=O)c1ccccc1)cn2Cc1ccccc1,inactive: 87%
7,Cc1c(CCC(=O)NCCc2ccccc2)c(=O)oc2cc(O)ccc12,inactive: 53%
8,CCc1cccc(CC)c1NC(=O)C(CC)n1nc(C)n2c(cc3cc(C)ccc32)c1=O (stereo unspecified),inactive: 53%
9,CCOC(=O)CSc1nnc(COc2cccc(C)c2)o1,active: 42%
10,CCOC(=O)c1c(C)[nH]c(C)c1S(=O)(=O)N1CCCC(C(=O)Nc2ccccc2OCC)C1 (stereo unspecified),inactive: 120%
11,Cc1ccc2c(c1)C(c1ccccc1)N(C(=O)c1ccccc1F)CC(=O)N2 (stereo unspecified),inactive: 75%
12,CCCc1[nH]nc2c1C1(CCN(C(C)=O)CC1)C(C#N)=C(N)O2,inactive: 74%
13,CCc1cccc2cc(CN)c(=O)[nH]c12,inactive: 98%
14,CCCn1c(SCc2nc(-c3cc(OC)ccc3OC)no2)nnc1-c1ccc(Cl)cc1,inactive: 63%
15,CCOC(=O)c1cccc(NC(=O)c2cc3cc4ccc(C)cc4nc3o2)c1,inactive: 77%
16,COc1ccc(O)c(-c2cn[nH]c2-c2cccs2)c1,inactive: 89%
17,COCCN=C1Sc2nc3c(C)cccc3cc2CN1Cc1ccco1,inactive: 108%
18,COc1ccc2c(c1)c(=O)c(S(=O)(=O)c1ccc(Cl)cc1)cn2C,inactive: 89%
19,N#Cc1ccc(NC(=O)CNCCN2CCOCC2)cc1,inactive: 79%
20,Cc1ccccc1CNC(=O)C1CCN(c2nnc(-n3c(C)ccc3C)s2)CC1,inactive: 101%
21,Cc1cccc(NC(=O)N2CCC(CN3CCC(C)CC3)CC2)c1C,inactive: 82%
22,CSc1nc(Nc2cccc(C)c2)c(C#N)c(-c2ccccc2)n1,inactive: 93%
23,CNc1c(NC(=O)c2cc(OC)cc(OC)c2)c(=O)oc2ccccc12,inactive: 77%
24,Cn1c(SCC(=O)N2CCCc3ccccc32)ncc(C(=O)Nc2ccc(F)cc2)c1=O,inactive: 78%
25,CCOC(=O)c1cnc2ccc(OC)cc2c1NCCc1ccc(OC)c(OC)c1,inactive: 65%
26,CCCCNC(=O)c1nn(-c2ccc(C)cc2)c(=O)c2c1c1ccccc1n2C,inactive: 81%
